# Test results taken from PubChem BioAssay (NCATS).
# Where “and” joins values, the source holds several entries; their conditions need not be identical. Identical values can stand only once. This list was built around the results that the source calls inconclusive (neither active nor inactive); the mix of calls is not that of the screen. Potencies beside an inconclusive call are fits to weak or partial responses and may not hold up. A structure can be active in one record and inactive in another. Calls of active or inactive are those of the source. Calls follow the shape of the dose curve; as a rule, active = well fitted curve in the direction sought with a large enough effect; inconclusive = small, poorly fitted or top-dose-only effect, or another doubt; inactive = no such curve, though single readings can be large; an effect the other way counts as inactive or inconclusive.
# How the values were obtained:
# [1] = Primary qHTS for inhibitors of nuclear receptor binding SET domain protein 2 (NSD2) in an RCH-ACV wild type WT cells (2C) (AID 1645877); details: activity change, negative = cell killing: at 44.9 µM (top of the series); also: nearly all actives have a fitted effect of over 70% in size; as to activity change, negative = cell killing: % is scaled to controls: 0 for no effect and ±100 for the full control effect
# CRL-7250 = normal cell line; test: Cytotoxic Profiling of Annotated Libraries Using Quantitative High-Throughput Screening (AID 1296008); details: Five cell lines viability, CellTiter-Glo ATP luminescence, 48-72 h; max response: stronger effect = lower value; also: nearly all actives have a fitted effect of over 60% in size; as to max response: % is scaled to controls: 0 for no effect and ±100 for the full control effect
# Procedure, shortened: (§1)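 Compounds were pin-transferred onto cells and incubated 48 or 72 hr at 37 degree Celsius, 95% humidity. CellTiter-Glo was added, plates sat 10 min at room temperature, then ATP-coupled luminescence was imaged as the viability read-out.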
# HEK293 = test: as above; details: Five cell lines viability, CellTiter-Glo ATP luminescence, 48-72 h; max response: stronger effect = lower value
# Procedure, shortened: as §1
# NIH3T3 = test: as above; details: Five cell lines viability, CellTiter-Glo ATP luminescence, 48-72 h; max response: stronger effect = lower value
# Procedure, shortened: as §1
# [2] = Primary fluorescence-based thiol-reactive (MSTI) qHTS assay for identification of artifact compounds. (AID 1845221);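 also: thiol-reactive compounds lower the probe fluorescence signal; nearly all actives have a fitted effect of over 65% in size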
# Procedure, shortened: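 Curve-fitted percent inhibition (4-parameter Hill) derived from fluorescence, Ex 525/Em 598 nm, scaled with Acetyl-MSTI and MSTI; 1 h incubation at room temperature.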
# CASKI = test: Primary qHTS to identify gynecologic anti-cancer compounds using libraries of approved drugs and bioactive compounds (AID 1345084); details: Gynecologic cancer cell panel viability, ATPlite luminescence, 48 h; activity change, negative = cytotoxicity: at 57.5 µM (top of the series); also: nearly all actives have a fitted effect of over 55% in size; as to activity change, negative = cytotoxicity: % is scaled to controls: 0 for no effect and ±100 for the full control effect
# Procedure, shortened: (§2)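 Cytotoxicity screen measuring ATP content by luciferase luminescence. Each compound is applied at five concentrations for 48 h at 37 C with 5% CO2.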
# Es-2 = test: as above; details: Gynecologic cancer cell panel viability, ATPlite luminescence, 48 h; series mostly up to 57.5 µM
# Procedure, shortened: as §2
# [3] = system: Zika virus NS2B-NS3 protease (unlinked complex); test: Primary screen GU Rhodamine qHTS for Zika virus inhibitors: Unlinked NS2B-NS3 protease assay (AID 1347159); also: nearly all actives have a fitted effect of over 60% in size
# Procedure, shortened: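 In dose–response format, inhibition of unlinked protease (25 nM) was measured with 1.5 microM bis-peptide Rhodamine110 substrate. Aprotinin served as the intraplate control.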
# C33A = test: Primary qHTS to identify gynecologic anti-cancer compounds using libraries of approved drugs and bioactive compounds (AID 1345084); details: Gynecologic cancer cell panel viability, ATPlite luminescence, 48 h; series mostly up to 57.5 µM; also: nearly all actives have a fitted effect of over 55% in size; as to activity change, negative = cytotoxicity: % is scaled to controls: 0 for no effect and ±100 for the full control effect
# Procedure, shortened: as §2
# CAOV3 = test: as above; details: Gynecologic cancer cell panel viability, ATPlite luminescence, 48 h; series mostly up to 57.5 µM
# Procedure, shortened: as §2
# Hek293T = test: as above; details: Gynecologic cancer cell panel viability, ATPlite luminescence, 48 h, control line for the selectivity index; series mostly up to 57.5 µM
# Procedure, shortened: as §2
# JEG-3 = test: as above; details: Gynecologic cancer cell panel viability, ATPlite luminescence, 48 h; series mostly up to 57.5 µM
# Procedure, shortened: as §2
# OV90 = test: as above; details: Gynecologic cancer cell panel viability, ATPlite luminescence, 48 h; series mostly up to 57.5 µM
# Procedure, shortened: as §2
# PA-1 = test: as above; details: Gynecologic cancer cell panel viability, ATPlite luminescence, 48 h; series mostly up to 57.5 µM
# Procedure, shortened: as §2
# SKOV3 = test: as above; details: Gynecologic cancer cell panel viability, ATPlite luminescence, 48 h; series mostly up to 57.5 µM
# Procedure, shortened: as §2
# Tov-21-G = test: as above; details: Gynecologic cancer cell panel viability, ATPlite luminescence, 48 h; activity change, negative = cytotoxicity: at 57.5 µM (top of the series)
# Procedure, shortened: as §2
# [4] = P-glycoprotein substrates identified in KB-8-5-11 adenocarcinoma cell line, qHTS therapeutic library screen (AID 1346987); also: nearly all actives have a fitted effect of over 65% in size
# Procedure, shortened: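 Compounds are pinned in dose-response onto KB-8-5-11 cells (500 cells/well, colchicine-free medium) and left 72 h at 37 degree C. CellTiter-Glo luminescence then yields AC50 values.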
# Tov112D = test: Primary qHTS to identify gynecologic anti-cancer compounds using libraries of approved drugs and bioactive compounds (AID 1345084); details: Gynecologic cancer cell panel viability, ATPlite luminescence, 48 h; activity change, negative = cytotoxicity: at 57.5 µM (top of the series); also: nearly all actives have a fitted effect of over 55% in size
# Procedure, shortened: as §2
# [5] = Primary qHTS for inhibitors of nuclear receptor binding SET domain protein 2 (NSD2) in an isogenic RCH-ACV NSD2 p.E1099K mutant (9B) (AID 1645876); also: nearly all actives have a fitted effect of over 70% in size
# Potency is read from the fitted curve at half-maximal effect; tags tell the direction and shape of the fitted curve.
structure (smiles),measurement,setting,value
C[C@@H]1CC[C@]2(C(=O)O)CC[C@]3(C)C(=CCC4[C@@]5(C)CC[C@H](O)[C@](C)(C(=O)O)C5CC[C@]43C)C2[C@]1(C)O (some centres undefined),Potency,[1],inactive
same,max response,CRL-7250,inactive: -2.08%
same,Potency,HEK293,"inconclusive: 14.2 µM [inhibitor, single point]"
same,max response,NIH3T3,inactive: -24.1%
O=C(C1CC1)N1CC[C@@H](Cc2n[nH]c(=O)n2-c2ccc(-c3ccc4occc4c3)cc2)C1,Potency,[1],inactive and active: 18.6 µM
same,Potency,[2],inactive
same,max response,CRL-7250,inactive: -4.78% and inactive: -21.6%
same,Potency,HEK293,"inconclusive: 16.6 µM [inhibitor, partial curve, poor fit]"
same,Potency,NIH3T3,"inconclusive: 4.67 µM [inhibitor, partial curve]"
same,Potency,CASKI,inactive
same,Potency,Es-2,inactive
Cc1ccc(C(=O)Nc2noc3ccccc23)cc1,Potency,[3],inactive
same,Potency,CRL-7250,"inconclusive: 29.1 µM [inhibitor, single point]"
same,Potency,HEK293,active: 18.4 µM
same,Potency,NIH3T3,"inconclusive: 23.1 µM [inhibitor, single point]"
same,Potency,C33A,"inconclusive: 35.5 µM [cytotoxic, partial curve]"
same,Potency,CAOV3,active: 15.8 µM
same,Potency,CASKI,active: 22.4 µM
same,Potency,Es-2,active: 15.8 µM
same,Potency,Hek293T,active: 15.8 µM
same,Potency,JEG-3,"inconclusive: 22.4 µM [cytotoxic, partial curve, poor fit]"
same,Potency,OV90,active: 11.2 µM
same,Potency,PA-1,"inconclusive: 22.4 µM [cytotoxic, partial curve]"
same,Potency,SKOV3,"inconclusive: 28.2 µM [cytotoxic, partial curve, poor fit]"
same,Potency,Tov-21-G,active: 28.2 µM
C[C@H]1CC[C@@]2(OC1)O[C@H]1CC3[C@@H]4CC[C@@H]5C[C@@H](O[C@@H]6O[C@H](CO)[C@@H](O[C@@H]7O[C@@H](C)[C@H](O)[C@@H](O)[C@H]7O)[C@H](O)[C@H]6O[C@@H]6O[C@H](CO)[C@@H](O)[C@H](O)[C@H]6O)CC[C@]5(C)C4CC[C@]3(C)[C@H]1[C@@H]2C (some centres undefined),Potency,CRL-7250,"inconclusive: 6.18 µM [inhibitor, single point]"
same,Potency,HEK293,"inconclusive: 5.51 µM [inhibitor, single point]"
same,Potency,NIH3T3,"inconclusive: 6.93 µM [inhibitor, single point]"
same,Potency,PA-1,"inconclusive: 8.91 µM [cytotoxic, single point]"
C=C(C)C(=O)O[C@H]1CC2=CC(C/C(C)=C\[C@H]3OC(=O)C(=C)[C@H]13)OC2=O (some centres undefined),Potency,[4],"inconclusive: 20.2 µM [inhibitor, single point]"
same,Potency,CRL-7250,"inconclusive: 20.2 µM [inhibitor, single point]"
same,Potency,HEK293,active: 4.53 µM
same,Potency,NIH3T3,"inconclusive: 12.8 µM [inhibitor, single point]"
same,Potency,C33A,"inconclusive: 12.6 µM [cytotoxic, single point]"
same,Potency,CAOV3,"inconclusive: 31.6 µM [cytotoxic, single point]"
same,Potency,Es-2,"inconclusive: 20 µM [cytotoxic, single point]"
same,Potency,Hek293T,"inconclusive: 12.6 µM [cytotoxic, partial curve, poor fit]"
same,Potency,PA-1,"inconclusive: 28.2 µM [cytotoxic, single point]"
same,Potency,Tov-21-G,"inconclusive: 10 µM [cytotoxic, partial curve, poor fit]"
same,Potency,Tov112D,inactive
CC1CCC(=O)CC(SCC(O)C(=O)O)CCC(=O)O1 (centres undefined),Potency,[5],"inconclusive: 23 µM [inhibitor, partial curve, poor fit]"
same,Potency,CRL-7250,"inconclusive: 18.4 µM [inhibitor, single point]"
same,Potency,HEK293,"inconclusive: 29.1 µM [inhibitor, single point]"
same,max response,NIH3T3,inactive: -15.1%
same,Potency,CAOV3,"inconclusive: 1.58 µM [cytotoxic, single point]"
same,Potency,Es-2,inactive
same,Potency,Tov-21-G,inactive
C=C1CC[C@@H](O)[C@]2(C)C[C@H]3OC(=O)C(=C)[C@H]3CC12 (some centres undefined),Potency,[4],"inconclusive: 16.4 µM [inhibitor, single point]"
same,Potency,[5],active: 16.3 µM
same,Potency,CRL-7250,"inconclusive: 0.731 µM [inhibitor, full curve, poor fit]"
same,Potency,HEK293,"inconclusive: 29.1 µM [inhibitor, single point]"
same,Potency,NIH3T3,"inconclusive: 23.1 µM [inhibitor, single point]"
same,Potency,CAOV3,inactive
same,Potency,Hek293T,"inconclusive: 25.1 µM [cytotoxic, single point]"
Nc1nc2c(ncn2C2OC3COP(=O)(O)OC3C2O)c(=O)[nH]1 (centres undefined),max response,CRL-7250,inactive: -27.3%
same,Potency,HEK293,"inconclusive: 29.1 µM [inhibitor, single point]"
same,Potency,NIH3T3,"inconclusive: 0.0326 µM [inhibitor, full curve, poor fit]"
same,Potency,CAOV3,inactive
same,Potency,CASKI,"inconclusive: 39.8 µM [cytotoxic, single point]"
same,Potency,JEG-3,inactive
same,Potency,OV90,"inconclusive: 28.2 µM [cytotoxic, partial curve, poor fit]"
same,Potency,Tov-21-G,inactive
CNC(=O)c1cc(Oc2ccc3nc(N[C@@H]4CCCC[C@H]4O)sc3c2)ccn1,Potency,[4],"inconclusive: 32.6 µM [inhibitor, partial curve, poor fit]"
same,Potency,[5],"inconclusive: 23.5 µM [inhibitor, single point]"
same,Potency,[1],"inconclusive: 16.6 µM [inhibitor, partial curve]"
same,Potency,CRL-7250,"inconclusive: 23.1 µM [inhibitor, single point]"
same,Potency,HEK293,active: 16.4 µM
same,Potency,NIH3T3,"inconclusive: 29.1 µM [inhibitor, partial curve, poor fit]"
same,Potency,C33A,"inconclusive: 22.4 µM [cytotoxic, single point]"
same,Potency,Es-2,"inconclusive: 39.8 µM [cytotoxic, single point]"
same,Potency,JEG-3,"inconclusive: 39.8 µM [cytotoxic, single point]"
same,Potency,OV90,"inconclusive: 39.8 µM [cytotoxic, single point]"
same,Potency,PA-1,"inconclusive: 22.4 µM [cytotoxic, partial curve]"
same,Potency,SKOV3,"inconclusive: 22.4 µM [cytotoxic, single point]"
same,Potency,Tov-21-G,"inconclusive: 25.1 µM [cytotoxic, single point]"
same,Potency,Tov112D,"inconclusive: 22.4 µM [cytotoxic, partial curve, poor fit]"
COc1ccc2nc(S(=O)(=O)Cc3ncc(C)c(OC)c3C)[nH]c2c1,max response,CRL-7250,inactive: -21.3%
same,Potency,HEK293,active: 16.4 µM
same,Potency,NIH3T3,"inconclusive: 29.1 µM [inhibitor, single point]"
same,Potency,SKOV3,inactive
CC(C)=CCc1ccc(Oc2c(O)cc(C)cc2CO)c(C(=O)O)c1O,Potency,[3],active: 6.31 µM
same,Potency,[2],"inconclusive: 18.5 µM [inhibitor, single point]"
same,max response,CRL-7250,inactive: -1.26%
same,outcome,HEK293,inactive
same,outcome,NIH3T3,inactive
same,Potency,Hek293T,inactive
C=C1C(=O)O[C@@H]2/C=C(\C)CC/C=C(/C=O)[C@H](OC)[C@@H](OC(=O)C(C)C)[C@@H]12,Potency,[3],"inconclusive: 31.6 µM [inhibitor, partial curve, poor fit]"
same,max response,CRL-7250,inactive: 2.09%
same,Potency,HEK293,"inconclusive: 12.8 µM [inhibitor, single point]"
same,Potency,NIH3T3,"inconclusive: 11.4 µM [inhibitor, single point]"
same,Potency,Es-2,"inconclusive: 28.2 µM [cytotoxic, single point]"
same,Potency,Hek293T,"inconclusive: 28.2 µM [cytotoxic, single point]"
same,Potency,OV90,"inconclusive: 31.6 µM [cytotoxic, single point]"
same,Potency,Tov-21-G,"inconclusive: 10 µM [cytotoxic, single point]"
